Experimental data from paper PMC5441861.
No constants are given. Whether binding was seen depends on the method and setting. For some of these results: Binding seen in cells or lysates may run through a third protein. Some entries that bind do so weakly or less than the wild type. Tags and fused reporters may be left off the sequences shown.

T1: GAL4 DNA-binding domain (DB)–FSD1 (Arabidopsis thaliana) (UniProt P21276)
T1 sequence: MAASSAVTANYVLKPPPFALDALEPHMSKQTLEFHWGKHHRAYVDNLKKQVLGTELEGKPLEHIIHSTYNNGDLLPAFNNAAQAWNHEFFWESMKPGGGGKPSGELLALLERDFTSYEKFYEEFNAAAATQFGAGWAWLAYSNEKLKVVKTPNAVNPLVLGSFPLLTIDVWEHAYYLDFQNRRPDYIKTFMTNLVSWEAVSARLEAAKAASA

T2: GAL4 DNA-binding domain (DB)–FSD2 (Arabidopsis thaliana) (UniProt Q9LU64)
T2 sequence: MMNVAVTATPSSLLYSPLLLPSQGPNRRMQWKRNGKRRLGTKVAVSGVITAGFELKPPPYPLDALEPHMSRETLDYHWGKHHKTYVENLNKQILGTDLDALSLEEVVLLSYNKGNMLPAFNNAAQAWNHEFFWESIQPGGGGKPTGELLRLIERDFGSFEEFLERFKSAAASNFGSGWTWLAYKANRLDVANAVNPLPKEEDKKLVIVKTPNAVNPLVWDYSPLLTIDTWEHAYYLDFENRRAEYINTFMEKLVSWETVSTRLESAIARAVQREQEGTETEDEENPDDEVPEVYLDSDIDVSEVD

T3: cYFP–FSD2 (Arabidopsis thaliana) (UniProt Q9LU64)
T3 sequence: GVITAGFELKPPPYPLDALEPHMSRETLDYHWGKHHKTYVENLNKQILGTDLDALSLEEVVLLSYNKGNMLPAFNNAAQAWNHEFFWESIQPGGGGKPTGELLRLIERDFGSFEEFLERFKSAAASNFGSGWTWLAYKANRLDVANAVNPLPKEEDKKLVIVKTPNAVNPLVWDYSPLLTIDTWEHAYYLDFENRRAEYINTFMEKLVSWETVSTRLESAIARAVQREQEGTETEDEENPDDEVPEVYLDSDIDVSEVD


Assays:
[1] = target: T1, GAL4 DNA-binding domain (DB)–FSD1 (Arabidopsis thaliana); assay: two-hybrid; ORFs in pDEST-AD (GAL4 AD) against ORFs in pDEST-DB (GAL4 DB); diploid yeast, growth on selective media
[2] = target: T2, GAL4 DNA-binding domain (DB)–FSD2 (Arabidopsis thaliana); assay: as above
[3] = target: T3, cYFP–FSD2 (Arabidopsis thaliana); assay: split reporter; BiFC; agro-injection of nYFP and cYFP fusions in N. benthamiana epidermal cells at OD600 0.1, observed after 1–2 d under epifluorescence microscopy

Row | Binder | binding [1] | binding [2] | binding [3]
1 | GAL4 activation domain (AD)–LSU1 (protein, UniProt Q9SCK1 1-94) MANRGGCVTVAAEEMDELRRRNIELSREVAEMKTEMIKLWQRTVVAEEAEEQLCSQLAELEVESLEQARDYHDRMLFLMDQISRLSSSSVVSSS | no binding | binds | –
2 | GAL4 activation domain (AD)–LSU2 (protein, UniProt Q9FIR9 1-94) MGKGGNYVTVAASEVDELRRKNGEMEKAVEEMKKEMLQLWRRTQVAEEAEERLCSQLAELEAESLDQARDYHSRIIFLMNELSRLSSDSASASP | no binding | binds | –
3 | nYFP–LSU1 (protein, UniProt Q9SCK1 1-94) MANRGGCVTVAAEEMDELRRRNIELSREVAEMKTEMIKLWQRTVVAEEAEEQLCSQLAELEVESLEQARDYHDRMLFLMDQISRLSSSSVVSSS | – | – | binds
4 | nYFP–LSU2 (protein, UniProt Q9FIR9 1-94) MGKGGNYVTVAASEVDELRRKNGEMEKAVEEMKKEMLQLWRRTQVAEEAEERLCSQLAELEAESLDQARDYHSRIIFLMNELSRLSSDSASASP | – | – | binds
5 | nYFP fusion with PHOSPHATASE AND TENSIN HOMOLOG DELETED ON CHROMOSOME TEN 1 (protein, UniProt Q9FLZ5 1-412) MGLKLSRGPVKEKSPLEFTRVHILTYFTTNSYLRNLVSKKRRRLIIGGYDLDMSYISDKLLAMSFPAERMRAVYRNPLWQVKSVLDMRHPDHYKVYNLCIEESYDPDNFYGRVERFPFDDNHVPSLKMIQLFCESVHSWLSLDPKNIAVVHCMAGKGRTGLMVSAYLVYGGMSAEEALEMYASRRTTNNNGVSIPSQRRYVKYWSDLLSFSKKGPPEVKLPQEHSRELLRIRLYDTANVDSVFFVVSELQEVPNEMYRPSVELARGCCRQFKKGYCRSSSPRYYISHVNCDSEEDEEVTDGEEPHLVVQMDTESSIIDEKTCLDFYFDKPVRVSGDIRITFYQKMIGSRLFYTCFNTAFITNGLLQFSIGELDKVGGNGRSISGPDFSLELLFGPACSKFGKFLSRDDLSLS | – | – | no binding
